Molecules are shown by their SMILES. The whole screen tested about 310,000 compounds, of which about 14,000 (4.5%) showed an effect of 50% or more. Effects have a minus sign here. Some of the results follow.
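Note: peak tail current of the secondary pulse compared with the same well before compound.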

For this experiment, the target named is human ether-à-go-go-related gene (hERG) potassium channel (human, UniProt Q12809). The experiment can be described thus: primary screen, population patch clamp on CHO cells stably expressing hERG.
human ether-à-go-go-related gene (hERG) potassium channel, sequence (Q12809 whole entry, looked up): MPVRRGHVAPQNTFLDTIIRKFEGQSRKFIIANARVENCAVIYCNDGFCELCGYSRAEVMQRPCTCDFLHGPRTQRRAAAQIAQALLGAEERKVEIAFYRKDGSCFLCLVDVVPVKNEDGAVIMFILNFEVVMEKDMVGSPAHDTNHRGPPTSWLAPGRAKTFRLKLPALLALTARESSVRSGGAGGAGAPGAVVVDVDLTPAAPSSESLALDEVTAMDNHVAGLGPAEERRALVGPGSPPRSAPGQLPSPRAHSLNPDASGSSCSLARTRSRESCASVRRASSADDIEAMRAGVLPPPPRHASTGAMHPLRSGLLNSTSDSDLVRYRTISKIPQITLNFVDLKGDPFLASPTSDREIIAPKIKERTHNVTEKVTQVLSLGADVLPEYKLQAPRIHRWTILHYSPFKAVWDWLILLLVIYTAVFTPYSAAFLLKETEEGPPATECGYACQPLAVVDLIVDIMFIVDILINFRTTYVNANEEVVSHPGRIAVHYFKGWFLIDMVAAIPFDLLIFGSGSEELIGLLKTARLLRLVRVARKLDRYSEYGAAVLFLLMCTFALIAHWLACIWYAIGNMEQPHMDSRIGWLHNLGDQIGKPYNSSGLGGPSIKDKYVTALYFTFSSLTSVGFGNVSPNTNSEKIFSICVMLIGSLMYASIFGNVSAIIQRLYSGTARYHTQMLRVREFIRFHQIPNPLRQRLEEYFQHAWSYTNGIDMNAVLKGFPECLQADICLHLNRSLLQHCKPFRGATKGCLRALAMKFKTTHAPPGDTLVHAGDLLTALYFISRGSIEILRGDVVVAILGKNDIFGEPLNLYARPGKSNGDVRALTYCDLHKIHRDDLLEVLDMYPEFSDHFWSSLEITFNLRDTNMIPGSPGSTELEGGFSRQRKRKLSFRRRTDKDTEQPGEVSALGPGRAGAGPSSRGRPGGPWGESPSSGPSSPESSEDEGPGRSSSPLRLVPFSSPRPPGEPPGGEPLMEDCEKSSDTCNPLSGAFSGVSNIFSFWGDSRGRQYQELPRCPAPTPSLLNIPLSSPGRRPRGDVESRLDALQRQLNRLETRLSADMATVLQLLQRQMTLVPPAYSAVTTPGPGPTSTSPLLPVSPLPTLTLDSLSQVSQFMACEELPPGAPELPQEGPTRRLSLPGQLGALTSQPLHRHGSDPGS
For the compound `CCOc1ccc(C(CC(=O)O)NC(=O)c2ccco2)cc1` (stereo not shown), the “hERG current change (%, negative = inhibition) at 10uM” value is 11%.
Next, `O=[N+]([O-])c1ccc(S(=O)(=O)NCCCc2ccccc2)cc1`: -64.6%; `CC(C)NC(=O)N1CC(c2ccccc2)C(c2ccc(Cl)cc2)=N1` (stereo not shown): -8.49%.
Next, `CCCCCCCCCCCCN1C/C(=C\C(=O)OCC)c2ccccc2S1(=O)=O`: 11.3%.
Next, `O=C(NCCN1CCCCC1)c1cc2ccccc2[nH]1`: -33.9%.
Consider `Fc1cccc(Cl)c1CNc1ccc(N2CCCC2)cc1`, for which the “hERG current change (%, negative = inhibition) at 10uM” value turned out to be 16.7%.
In the case of `COc1ccc(N2CCN(C(=O)c3ccc(OCC4CCCO4)cc3)CC2)cc1` (stereo not shown), the “hERG current change (%, negative = inhibition) at 10uM” value worked out at 4.74%.
In the case of `CC(C)(C)OCC1CO1` (stereo not shown), the “hERG current change (%, negative = inhibition) at 10uM” value came out at 20.2%.
Next, `Cc1cccc(NC(=O)NNC(=O)c2ccc3ccccc3c2O)c1`: 18.9%; `Cc1ccc(C)c(Cn2cnc3c(nnn3-c3ccc(F)cc3)c2=O)c1`: -2.53%.
As to `CCNC(=S)NNC(=O)c1cc(-c2ccc(OC)cc2)nc2ccccc12`, the “hERG current change (%, negative = inhibition) at 10uM” value is given as -1.11%.
`Cc1ccc(-n2cc(CNCC3CC(=O)N(C4CC4)C3)c(-c3cccc(C)c3)n2)cc1` (stereo not shown): the “hERG current change (%, negative = inhibition) at 10uM” value was -71.9%.
Next, `COc1ccc(C2Nc3ccccc3NC3=C2C(=O)CC(C)(C)C3)cc1` (stereo not shown): 8.09%; `COc1ccccc1NC(=O)c1sc2ncn(Cc3ccc(C)cc3)c(=O)c2c1C`: 6.86%; `CC12CCC(C(=O)N(CSC(=S)N/N=C\c3ccccc3)C1=O)C2(C)C` (stereo not shown): 12%.
Then `O=C(O)CCNS(=O)(=O)c1cccc(Br)c1`, with 5.19%; and `COc1cc(/C=N/Nc2ccccn2)cc(OC)c1O`, with -12.6%; and `CC(C)N1CCN(Cc2cn[nH]c2C2CCCCC2)CC1CCO` (stereo not shown), with 11.7%.
For `CCOc1ccc(NC(=S)NNC(=O)CC(C)O)cc1` (stereo not shown), the “hERG current change (%, negative = inhibition) at 10uM” value was determined as 40.7%.
Next, `CC(=O)Nc1ccc(NC(=O)C(C)c2cccc(C(=O)c3ccccc3)c2)cc1` (stereo not shown): 21.4%.
Next, `Cc1nnc(NC(=O)CC(C)c2ccccc2)s1` (stereo not shown): 23.2%.
Then `CCN(CC(=O)Nc1c(F)cccc1F)C(=O)CSc1ccc(F)cc1`, with -14.3%; and `Cc1cc(OCC(=O)NCCCN2CCOCC2)cc(C)c1Cl`, with -3.75%; and `C=CCn1c(SCC(=O)NCc2ccc3c(c2)OCO3)nnc1-c1cccnc1`, with -0.64%.
Regarding `COc1ccc(CNC(=O)c2c([S-])n(-c3ccc(C)cc3)c3cccc[n+]23)cc1`, the “hERG current change (%, negative = inhibition) at 10uM” value is given as 3.45%.
Then `CC(=O)c1cccc(CN2CCN(C3CCCCC3)C(CCO)C2)c1` (stereo not shown), with -15.9%.
Next, `C=CCNc1nc(NCCO)nc(N2CCCC2)n1`: -4.67%; `COc1ccccc1C(=O)NCCC(=O)N(C)CC(=O)Nc1ccc(N2CCOCC2)cc1`: -26.7%; `CCN(CC(=O)NC1CCS(=O)(=O)C1)S(=O)(=O)c1ccc2ccccc2c1` (stereo not shown): -13.7%.
Next, `CC(C)(C)NC(=O)C(c1ccccn1)N(C(=O)C1CSC(=O)C1)c1ccc(F)cc1` (stereo not shown): 6.26%; `CNC(=O)Nc1ccc(C(O)(C(=O)OC)C(F)(F)F)cc1` (stereo not shown): 15.9%; `CN(C)c1ccc(CN2CCCCCC2)cc1`: -6.11%.
Regarding `CN(c1cccc(NC(=O)Nc2cccc(Cl)c2)c1)S(C)(=O)=O`, the “hERG current change (%, negative = inhibition) at 10uM” value is recorded as -11.7%.
Then `CCCC1=C(C(=O)OCC)C(c2ccc(N(C)C)cc2)n2ncnc2N1` (stereo not shown), with -15%.
Next, `Cc1cccc(C(=O)Nc2c(C#N)c(C)c(C)n2Cc2ccccc2)c1`: 12.2%; `O=C(CCCc1c[nH]c2ccccc12)NCCc1c[nH]c2ccccc12`: -4.33%; `CC1CN(C(=O)c2ccn(C)n2)CC(C)O1` (stereo not shown): 5.85%.
Then `Cc1cc(Cl)ccc1C(=O)C1CCCN(C(=O)/C=C/c2cnn(C)c2)C1` (stereo not shown), with -10.7%; and `COc1cccc(C(=O)NCC(=O)OCC(=O)c2ccccc2)c1`, with 2.59%; and `CC(C)CCNC(=O)c1ccc2c(SCC(=O)O)c3c(nc2c1)CCCC3`, with -2.6%.
As to `CCn1c(/C=C/c2c(C)n(CC)c3ccccc23)nc2ccccc2c1=O`, the “hERG current change (%, negative = inhibition) at 10uM” value was -19.7%.
Then `CCOc1ccccc1N(C(=O)c1snc(C(N)=O)c1N)C(C(=O)NCCC(C)C)c1ccco1` (stereo not shown), with -22.2%; and `COC(=O)NC(=C(Cl)Cl)P(=O)(c1ccccc1)c1ccccc1`, with 15.5%.
As for `CN(CCc1nnc(N)s1)[N+](=O)[O-]`, the “hERG current change (%, negative = inhibition) at 10uM” value worked out at 16.6%.
Next, `NC(=O)CC(NC(=O)c1ccc(Br)cc1)c1ccc(N2CCCCCCC2)c([N+](=O)[O-])c1` (stereo not shown): -8.88%.
`Cc1ccc(NC(=O)c2ccccc2OCc2c(C)noc2C)cc1S(=O)(=O)N(C)C`: the “hERG current change (%, negative = inhibition) at 10uM” value was -0.589%.
Then `N#Cc1sc2nc(-c3cccs3)cc(-c3ccccc3)c2c1N`, with 10.3%; and `COc1ccc(C)cc1NC(=O)CSc1nnc(COc2ccc(Cl)cc2)n1Cc1ccco1`, with 4.62%; and `CC(C)N1CC=C2C(C#N)=C(N)C(C#N)(C#N)C(c3ccccc3)C2C1` (stereo not shown), with -10.1%.
On to `COc1ccc(-c2cc(C)no2)cc1S(=O)(=O)NCCCN(C)Cc1ccccc1`, for which the “hERG current change (%, negative = inhibition) at 10uM” value was -29.9%.
For `C(=C\c1nc(N2CCCCCC2)c2ccccc2n1)/c1ccccc1`, the “hERG current change (%, negative = inhibition) at 10uM” value is recorded as -21.8%.
Next, `Cn1c(-c2ccccc2)cc2ccccc21`: 9.39%; `O=C(c1ccsc1)N1CCCC(N2CCN(c3cccc(Cl)c3)CC2)C1` (stereo not shown): -47.1%; `O=c1c2c3c(sc2nc2n1CCCCC2)CCCCC3`: -15%.
Regarding `CCCNC(=O)CCc1c(C)nc2c(c(C)nn2-c2ccc(C)cc2)c1C`, the “hERG current change (%, negative = inhibition) at 10uM” value is on record as -0.266%.
Then `Cc1cc(/C=C\c2nc(O)c([N+](=O)[O-])c(=O)[nH]2)c(C)n1-c1ccccc1`, with 17.1%.
Next, `COc1ccc(NC(=O)CCOc2ccccc2)cc1`: 0.896%.
Next, `COc1ccc(/C=C/c2nc(N)nc(-c3ccccc3O)n2)cc1`: -4.43%.

For the origin of these results see publication PMC4336329 (PLoS ONE, 2015).
